Results reported in publication PMC10360995, “Discovery of 3-((3-amino-1H-indazol-4-yl)ethynyl)-N-(4-((4-ethylpiperazin-1-yl)methyl)-3-(trifluoromethyl)phenyl)benzamide (AKE-72), a potent Pan-BCR-ABL inhibitor including the T315I gatekeeper resistant mutant” (Journal of Enzyme Inhibition and Medicinal Chemistry, 2023).

How the values were obtained:
BCR-ABL^T315I [1] = molecular target: T1, BCR-ABL^T315I (Homo sapiens, UniProt P00519, T315I); assay: biochemical
Description: . Meanwhile, both 4a and 4b surpassed the potency of lead indazoles II and I towards BCR-ABL^T315I with 8–11, and about two times, respectively. […] . […] . [table]

BCR-ABL^T315I [2] = molecular target: T1, BCR-ABL^T315I; conditions: cited from earlier work
[3] = test system: Ba/F3 cells expressing BCR-ABL^T315I; assay: Cellular proliferation assay; assay type: cell-based; conditions: Mus musculus, BaF3, read-out: GI50 Ba/F3 (Bcr-Abl^T315I)
Description: We also tested AKE-72 against BCR-ABL-positive and BCR-ABL-negative cell lines.
1.8. Cytochrome P450 Assay
The binding site was defined based

| SMILES | IC50 (BCR-ABL^T315I [1]) [nM] | fold potency towards BCR-ABL^T315I versus lead indazole I (BCR-ABL^T315I [1]; relative to I) | IC50 (BCR-ABL^T315I [2]) [nM] | GI50 [3] [nM] | fold more potent towards BCR-ABL^T315I than 4b (BCR-ABL^T315I [1]; relative to 4b) [folds] | fold more potent towards BCR-ABL^T315I than lead I (BCR-ABL^T315I [1]; relative to I) [folds] |
| --- | --- | --- | --- | --- | --- | --- |
| CN1CCN(Cc2ccc(C(=O)Nc3cccc(C#Cc4cccc5[nH]nc(N)c45)c3)cc2C(F)(F)F)CC1 [Compound 4a] | 96 ± 1.47 | about two |  |  |  |  |
| CCN1CCN(Cc2ccc(C(=O)Nc3cccc(C#Cc4cccc5[nH]nc(N)c45)c3)cc2C(F)(F)F)CC1 [Compound 4b] | 142 ± 18.9 | about two |  |  |  |  |
| Nc1n[nH]c2cccc(C#Cc3cccc(NC(=O)c4ccc(N5CCOCC5)c(C(F)(F)F)c4)c3)c12 [I, reference compound] |  |  | 227 ± 44 |  |  |  |
| CCN1CCN(Cc2ccc(NC(=O)c3cccc(C#Cc4cccc5[nH]nc(N)c45)c3)cc2C(F)(F)F)CC1 [Compound 5, 3-((3-amino-1H-indazol-4-yl)ethynyl)-N-(4-((4-ethylpiperazin-1-yl)methyl)-3-(trifluoromethyl)phenyl)benzamide] | 9 ± 3.14 |  |  | 290 ± 36 | 16 | 25 |

Where two headings read alike, the source gives them in different places.
